# PubChem BioAssay AID624296 (National Center for Advancing Translational Sciences (NCATS), 2012)
# Out of some 350,000 compounds screened, about 9,900 (2.8%) were called active. This list was built around the results that the source calls inconclusive (neither active nor inactive); the mix of calls is not that of the screen. The call rests on the fitted dose curve; in most records, active means well fitted activation curve with a large enough effect; inconclusive means small, poorly fitted or top-dose-only effect; inactive means no such curve, though single readings can be large or run the other way. No potency is given beside an inconclusive call; the fits are too rough.
# Experiment: A quantitative high throughput screen for small molecules that induce DNA re-replication in MCF 10a normal breast cells. Further: nearly all actives have a fitted effect of over 50% in size. On activity, positive = re-replication: % of control where 0% means no effect.
# Conditions: MCF 10A DNA re-replication, Hoechst nuclear intensity, 48 h; activity, positive = re-replication: at 46.1 µM (top of the series)
# Potency means the concentration at half of the fitted maximal effect; tags describe the fitted curve by direction and shape.
SMILES,"activity, positive = re-replication",Potency
c1coc(-c2nnc(SCc3nc4ccccc4[nH]3)o2)c1,inactive: 4.74%,–
COc1cc(/C=C/C(=O)OCC(=O)Nc2cccc(F)c2)ccc1O,–,"inconclusive [activator, partial curve, poor fit]"
CC(C)SCCCCOc1ccc2ccccc2c1,–,"inconclusive [activator, single point]"
CCOc1ccc([C@@H]2CC=C(C(=O)O)[C@H](c3cccc(Cl)c3)N2S(=O)(=O)c2ccc(C)cc2)cc1,–,"inconclusive [activator, partial curve]"
Nc1nnnn1CC(=O)N/N=C/c1ccccn1,–,"inconclusive [activator, partial curve, poor fit]"
Cc1ccccc1OC(C)C(=O)N1CCN(c2ccccn2)CC1 (centres undefined),inactive: 15.1%,–
C=CCOc1ccc(C2OC34CCCCC3C(C#N)(C#N)C2(C#N)C(=N)O4)cc1 (centres undefined),inactive: 6.36%,–
CN(C(=O)CSc1ncnc2scc(-c3ccccc3)c12)C1CCS(=O)(=O)C1 (centres undefined),–,"inconclusive [activator, single point]"
CC1(C)C=Cc2c(ccc3c2OC[C@H](c2ccc(O)cc2O)C3)O1,–,"inconclusive [activator, single point]"
O=C(COC(=O)c1ccc(-c2nnc(-c3ccccc3)o2)cc1)c1ccccc1,–,"inconclusive [activator, single point]"
O=S(=O)(c1ccc(Cl)c(C(F)(F)F)c1)N1CCN(CC(O)COCC2CCCO2)CC1 (centres undefined),–,"inconclusive [activator, partial curve, poor fit]"
CCOC(=O)c1ccc(NC(=O)C2(c3ccccc3)CCOCC2)cc1,–,"inconclusive [activator, partial curve, poor fit]"
COC(=O)c1ccc(CSc2ncnc3c2sc2nc(N4CCOCC4)c4c(c23)CCCC4)o1,–,"inconclusive [activator, single point]"
O=C(NCc1ccc2c(c1)OCO2)c1cc([N+](=O)[O-])ccc1N1CCCCC1,–,active: 2.59 µM
COc1ccc(C(=O)NC(=S)NNC(=O)c2ccc3ccccc3n2)cc1,–,"inconclusive [activator, single point]"
Fc1ccc(-n2nnc(-c3nccs3)n2)cc1,inactive: 24.6%,–
N/C(=N\OC(=O)c1ccncc1)c1cccc([N+](=O)[O-])c1,inactive: 1.41%,–
COc1ccc(/C=N/S(=O)(=O)c2ccccc2)cc1OC,inactive: 2.04%,–
O=C(/C=C/c1ccco1)NCc1ccccn1,inactive: 0.535%,–
O=C(c1ccco1)N1CCN(C(=O)c2ccccc2OCc2ccc(Cl)cc2)CC1,inactive: -2.61%,–
COc1ccc(CNC(=O)Cc2ccc(NC(=O)C3=C(C)OCCS3)cc2)cc1,–,active: 8.2 µM
O=C(Cn1cnc2c(NC(=O)OCc3ccccc3)ncnc21)NCc1ccccn1,inactive: -3.95%,–
Cc1cccc(NC(=S)NNC(=O)CCn2cc(C)cn2)c1,inactive: -0.935%,–
Cc1cccc(NC(=S)NC2CC3CCCC(C2)N3Cc2ccco2)c1 (centres undefined),inactive: 11.9%,–
O=C1CCCN1CCC(=O)N1CCCC(N2CCN(c3ccccc3F)CC2)C1 (centres undefined),inactive: 1.78%,–

SMILES,"activity, positive = re-replication",Potency
Cc1ccc(C(=O)N/N=C/C2=Cc3ccccc3OC2C)cc1 (centres undefined),–,"inconclusive [activator, single point]"
Cc1cccc(-c2noc(CCC(=O)N3CCN(c4cc(C)ccc4C)CC3)n2)c1,–,"inconclusive [activator, single point]"
O=C(N/N=C/c1cc(Br)c(Br)o1)c1cc2ccccc2o1,–,"inconclusive [activator, single point]"
CSc1nc(Cl)c(C#N)c(-c2ccc(C)cc2)n1,inactive: 3.28%,–
Cc1ccc(-n2cccc2/C=C2\C(=N)N3N=C(C(C)C)SC3=NC2=O)cc1,–,"inconclusive [activator, partial curve, poor fit]"
Cc1cccc(C)c1NC(=S)N/N=C1\CC2CC=CC12 (centres undefined),–,"inconclusive [activator, single point]"
CC(C)(C)NC(=O)CSC(=Nc1ccc(F)cc1)NC#N,–,"inconclusive [activator, single point]"
O=C(Nc1ccc(Cn2nnc3ccccc32)cc1)c1ccco1,inactive: 22.6%,–
O=C(Cn1cnc([N+](=O)[O-])n1)c1ccc(O)c(O)c1,inactive: 8.56%,–
Cc1cnc(C(=O)OCC(=O)NC2CCCCC2)cn1,–,"inconclusive [activator, partial curve, poor fit]"
CCn1c(=S)[nH]c2c(c1=O)C(C)(C)Cc1ccccc1-2,–,"inconclusive [activator, partial curve, poor fit]"
Cc1noc(/C=C/N(C)C)c1S(=O)(=O)N(C)CC(=O)N1CCc2ccccc21,–,"inconclusive [activator, partial curve, poor fit]"
OC(C#Cc1ccccn1)c1cccs1 (centres undefined),–,"inconclusive [activator, single point]"
O=C(Nc1ccccc1O)c1c(O)c2c([nH]c1=O)CCCC2,–,active: 20.6 µM
O=c1c(Br)ccc(Br)cc1Br,–,"inconclusive [activator, full curve, poor fit]"
NS(=O)(=O)c1ccc(NNC(=O)c2ccc(F)cc2F)cc1,–,"inconclusive [activator, partial curve]"
CN1CCN(c2nc(N3CCN(c4ccccc4)CC3)ncc2F)CC1,inactive: 0.119%,–
COc1ccccc1CNC(=O)COC(=O)c1cc(=O)c2ccccc2o1,inactive: -4.56%,–
Clc1ccc(-c2cc(C3CCNCC3)[nH]n2)c(Cl)c1,–,"inconclusive [activator, partial curve]"
Cc1cc(C(=O)N/N=C/c2ccco2)c2ccccc2n1,–,"inconclusive [activator, partial curve, poor fit]"
O=C(CC1SC(=O)NC1=O)Oc1ccc(/C=N/NC(=O)c2ccccc2O)cc1 (centres undefined),inactive: -2.44%,–
S=C(c1ccc2c(c1)OCO2)N1CCN(c2cccc(Cl)c2)CC1,–,active: 1.46 µM
O=S(=O)(NC1CCCCC1Nc1ccc(Cl)cc1)c1ccccc1 (centres undefined),–,"inconclusive [activator, partial curve]"
COc1ccc(-c2cc(C(=O)Nc3cccnc3)c3ccccc3n2)cc1OC,–,"inconclusive [activator, single point]"
CCCNc1nc(C)nc2c1cnn2CCc1ccccc1,inactive: -5.5%,–

SMILES,"activity, positive = re-replication",Potency
Cc1c(O)ccc2c3c(c(=O)oc12)CCC(C)C3 (centres undefined),inactive: 5.44%,–
COc1ccc(NC(=O)C2Cc3cccc(OC)c3O/C2=N\O)cc1 (centres undefined),inactive: -11.6%,–
O=C(c1cccs1)N1CCc2c([nH]c3ccccc23)C1c1ccc(Cl)cc1 (centres undefined),–,"inconclusive [activator, full curve, poor fit]"
CCCCn1c(C(C)NC(=O)COC)nc2ccccc21 (centres undefined),inactive: 4.56%,–
CCOc1cccc2cc(C(=O)NCc3ccc(OC)cc3)c(=N)oc12,inactive: 9.62%,–
CN1CCN(CCOc2ccc(Cc3ccccc3)cc2)CC1,–,"inconclusive [activator, partial curve, poor fit]"
COc1ccc(N2CCN(Cc3cc(=O)oc4ccc5ccccc5c34)CC2)cc1,–,"inconclusive [activator, single point]"
O=S(=O)(Nc1cccc(-c2nc3cccnc3s2)c1)c1ccc2c(c1)CCCC2,–,"inconclusive [activator, single point]"
COc1ccc2c(c1)[nH]c1c(N3CCN(Cc4ccc5c(c4)OCO5)CC3)ncnc12,–,"inconclusive [activator, single point]"
CCn1c(SCc2nc(CC(=O)Nc3ccccc3OC)no2)nnc1-c1cccs1,inactive: 0.498%,–
COC(=O)c1ccccc1NC(=O)/C=N/O,inactive: 0.1%,–
C=CCNC(=O)c1ccc(CN(c2ccc(OCC)cc2)S(=O)(=O)c2ccc(C)cc2)cc1,–,active: 25.9 µM
Cc1ccc(NC(=O)c2ccccc2Br)cc1S(=O)(=O)N(C)C,–,"inconclusive [activator, single point]"
Cc1ccc(N/C(SCc2ccccc2C)=C(/C#N)C(=O)NCc2ccco2)cc1C,–,"inconclusive [activator, full curve]"
Cn1c2ccccc2c(=O)c2cc(C#Cc3cccc(N)c3)ccc21,–,"inconclusive [activator, single point]"
COC(=O)CNC(c1ccccc1)c1cc(Br)ccc1NC(=O)CNC(=O)OCc1ccccc1 (centres undefined),–,"inconclusive [activator, single point]"
Cn1c(-c2ccccc2)cnc1NCc1ccc(-c2ccccc2)cc1,–,"inconclusive [activator, single point]"
CCN(CC)CCNC(=O)CSc1c2c(nc3cc(Cl)ccc13)CCCC2,–,"inconclusive [activator, single point]"
CCOC(=O)c1cnc2ccc(C)cc2c1N(C)Cc1ccccc1,–,"inconclusive [activator, single point]"
Clc1ccc(-c2nnc(CSc3nnc(-c4cccs4)o3)o2)cc1,–,"inconclusive [activator, single point]"
Cc1ccc(CN2CCSc3ccc(C(=O)N4CCN(c5ncccn5)CC4)cc32)cc1,–,"inconclusive [activator, partial curve]"
COC(=O)Cc1cc(=O)n(-c2nc3ccccc3[nH]2)[nH]1,–,"inconclusive [activator, partial curve, poor fit]"
CCN1CCN(C(=O)c2ccc3c(c2)N(Cc2ccc(C)cc2)CCS3)CC1,inactive: 3.47%,–
COc1ccc2nc(Nc3nc4cc5c(cc4s3)OCO5)sc2c1,–,"inconclusive [activator, partial curve, poor fit]"
